Hit rate of the full screen: of about 50,000 compounds, about 800 (1.6%) showed an effect of 50% or more. This is one part of the list.

This assay deals with Bcl-2-like protein 10 (Homo sapiens) (UniProt Q9HD36). Put plainly: TR3 peptide-Bcl-B binding displacers, biochemical primary FP assay, phenotype converters (AID 1240).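 Further: 0% = Bcl-B with tracer peptide and DMSO and 100% = tracer peptide lacking Bcl-B.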 Conditions: GST-Bcl-B / FITC-TR3 peptide fluorescence polarization; stronger effect = higher value; compound at 3.75 mg/L.
UniProt Q9HD36, sequence (Q9HD36 whole entry, looked up): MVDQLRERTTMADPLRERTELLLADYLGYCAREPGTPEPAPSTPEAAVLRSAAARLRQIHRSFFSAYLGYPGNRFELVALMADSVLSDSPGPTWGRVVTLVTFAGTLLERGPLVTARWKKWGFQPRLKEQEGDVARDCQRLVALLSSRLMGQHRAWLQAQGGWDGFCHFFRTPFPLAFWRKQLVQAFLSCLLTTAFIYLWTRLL
With `CC(=O)C12c3ccccc3C(c3ccccc31)C1C(=O)N(c3ccc(F)cc3)C(=O)C12` (stereo unspecified), the displacement is 12.6%.
On to `CC(O)c1cccc(NC(=O)c2nn3c(c2Cl)NC(c2ccco2)CC3C(F)(F)F)c1` (stereo unspecified), for which the displacement was -0.1%.
Regarding `CCc1nnc(NC(=O)C(CC)CC)s1`, the displacement was -4.3%.
As to `O=C(c1ccccc1F)N1CCN(Cc2ccc(Cl)cc2)CC1`, the displacement is -9.2%.
Turning to `Cc1cccc(C(=O)Oc2ccc(/C=C3/SC(=S)N(c4ccccc4)C3=O)cc2)c1`, the displacement came to 13.6%.
As for `O=C(/C=C/c1ccc(Cl)cc1)Nc1ccc(-c2nc3ncccc3o2)cc1`, the displacement was determined as 9.4%.
As for `Cc1oc(C(=O)O)cc1COc1ccc2oc3ccccc3c2c1`, the displacement is 7.1%.
`COc1ccc(NC(=O)NCCc2ccc(Cl)cc2Cl)cc1OC`: the displacement is -4.4%.
For `CCOc1ccc(-c2cc(C(=O)Nc3cccc([N+](=O)[O-])c3)c3ccccc3n2)cc1` the value was 4.4%.
`C/C(=N\NC(=O)c1ccccn1)c1ccc(F)cc1`: the displacement is -18.6%.
As for `c1ccc(-c2cc(-c3cc(-c4ccccc4)on3)no2)cc1`, the displacement is 2.6%.
For `CC(C)(C)NCC(=O)Nc1ccc(S(N)(=O)=O)cc1` the value was -3.9%; for `Cc1cccc(NC(=O)COc2ccc(C(C)C)cc2)c1C`, -8.6%; for `CN(C)c1ccc(/C=C2\C(=O)NC(=O)N(c3ccc(Cl)cc3)C2=O)o1`, -32.5%.
Take `COc1ccc(NC(=O)CC2Nc3cc(C)c(C)cc3NC2=O)cc1` (stereo unspecified): the displacement was -8%.
Then `CCOC(=O)C1=C(C)NC(C)=C(C(=O)OC)C1c1ccc([N+](=O)[O-])cc1` (stereo unspecified), with 4.3%.
In the case of `COc1cc(-c2nc(N)c3c(=O)oc4ccccc4c3n2)cc(OC)c1OC`, the displacement was 14.2%.
Take `O=C(Nc1nc2c(s1)C(=O)CCC2)c1ccccc1Cl`: the displacement is 10.3%.
For the compound `Cc1ccc(/C=C2/SC(=S)N(CCC(=O)N3CCCCC3)C2=O)cc1`, the displacement was determined as 10%.
On to `Cc1ccc(S(=O)(=O)Nc2cccc(Cl)c2)cc1[N+](=O)[O-]`, for which the displacement was 3%.
Then `N#Cc1c(-c2ccc([N+](=O)[O-])cc2)c2c([nH]c1=S)CCCC2`, with 3.8%; and `Clc1ccccc1-n1ncnc1-c1ccc(Br)cc1`, with -4.7%.
Take `COc1cc(NC(=O)COc2cccc(C)c2C)c(OC)cc1Cl`: the displacement is -5%.
`O=C(CSc1nc2ccccc2s1)NNC(=O)NC1CCCCC1`: the displacement was -8.5%.
With `COc1ccc(C2CC(=O)C3=C(C2)Nc2ccccc2NC3c2ccccc2)cc1` (stereo unspecified), the displacement turned out to be 2.3%.
Regarding `CCOC(=O)c1ccccc1NC(=O)C(CC)c1ccccc1` (stereo unspecified), the displacement worked out at 19.2%.
As to `CC(C)(C)c1ccc(/C=C/C(=O)Nc2ccc([N+](=O)[O-])cc2)cc1`, the displacement was -0.8%.
With `COC(=O)c1ccccc1NC(=O)CN(c1ccc(C)cc1)S(C)(=O)=O`, the displacement was 3.5%.
For `CCN(CC)c1ccc(/C=C2\NC(=S)N(c3ccccc3)C2=O)cc1`, the displacement is -61.8%.
For `O=C(Nc1nc(-c2ccc([N+](=O)[O-])cc2)cs1)C1CC1c1ccccc1` (stereo unspecified) the value was -0.8%; for `C=CCc1cccc2cc(C(=O)Nc3ccc(C)c(C)c3)c(=O)oc12`, 7.3%; for `O=C(c1cccnc1)N1CCN(S(=O)(=O)c2ccc(Cl)cc2)CC1`, -0.2%.
In the case of `CCOc1cc(C(=S)N2CCOCC2)ccc1O`, the displacement turned out to be 14.5%.
Consider `CC(C)CN1C(=O)/C(=C/c2ccc(Cl)cc2Cl)SC1=S`, for which the displacement was 11.7%.
On to `CCOc1cccc(-c2nnc(N)s2)c1`, for which the displacement was determined as 2.4%.
Take `NC1=NC(c2ccccc2)n2c(nc3ccccc32)N1` (stereo unspecified): the displacement is 8.7%.
As for `CC(C)(C)CC(C)(C)NC(=O)CSc1nnc(N)s1`, the displacement was found to be 0.6%.
With `Nc1nonc1OCCN1CCN(c2ccc([N+](=O)[O-])c3cccnc23)CC1`, the displacement amounted to 7.2%.
Regarding `CCOC(=O)c1ccc(NC(=O)COc2ccccc2C)cc1`, the displacement was -9.4%.
Regarding `COc1ccc(OC)c(NC(=O)c2ccc(CN3CCc4ccccc4C3)cc2)c1`, the displacement was -2%.
Turning to `COc1ccc(NC(=O)c2ccc(F)cc2)cc1Cl`, the displacement was -14.3%.
On to `CCCCOC(=O)Nc1nnc(COc2ccccc2)s1`, for which the displacement came out at 7.2%.
`CCOC(=O)C1=C(O)/C(=C\c2ccc(OC)cc2)SC1=Nc1cccc(Cl)c1`: the displacement is -39%.
On to `Cc1cc2nc3s/c(=C/c4ccc(-c5cc([N+](=O)[O-])ccc5Cl)o4)c(=O)n3c2cc1C`, for which the displacement stood at 1%.
In the case of `CCOc1ccc(C(=O)Nc2ccc3oc(-c4ccncc4)nc3c2)cc1Cl`, the displacement is -9.5%.
On to `COc1ccc(OC)c(/C=C2/SC(=S)N(CNc3cccc(Cl)c3)C2=O)c1`, for which the displacement amounted to 57%.
Turning to `COCCOC(=O)c1ccc(NC(=O)COc2ccc3c(C)cc(=O)oc3c2)cc1`, the displacement stood at 90.3%.
As for `Cc1c(C)c2ccc(OCC(=O)c3ccccc3)c(C)c2oc1=O`, the displacement came to 16.4%.
Take `O=C(COc1cccc2ccccc12)NCc1ccco1`: the displacement is 3.6%.
For the compound `C[C@@H]1O[C@@H](Nc2ccc(Cl)cc2[N+](=O)[O-])[C@H](O)[C@H](O)[C@H]1O`, the displacement was 54.7%.
In the case of `COCCNC(=O)CC12CC3CC(C1)CC(CC(=O)NCCOC)(C3)C2`, the displacement stood at 4.2%.
Take `Cc1cc(OCC(=O)Nc2ccc3ccccc3c2)cc(C)c1Cl`: the displacement stood at 9.6%.
Take `COC(=O)C1=C(C(=O)OC)C2(OC1c1ccccc1C)C(=O)c1ccccc1C2=O` (stereo unspecified): the displacement was -3.5%.
In the case of `O=C1CCCC/C1=C\Nc1ccc([N+](=O)[O-])cc1Br`, the displacement amounted to 4.4%.
Consider `COc1ccc(N2C(=O)NC(=O)/C(=C/c3ccc(-c4ccc(F)cc4)o3)C2=O)cc1`, for which the displacement is 100%.
With `CC1=C(C(=O)OC(C)C)C(c2ccc(Cl)cc2)NC(=O)N1` (stereo unspecified), the displacement was -2.1%.
Consider `O=C(N1CCCCC1)C12CC3CCC(CC(C3)C1)C2`, for which the displacement turned out to be 6.3%.
For `COc1ccccc1NC(=O)C1=C(C)NC(SCC(=O)c2ccccc2)=C(C#N)C1c1ccccc1Cl` (stereo unspecified), the displacement is -3.5%.
As for `COc1ccccc1CNC(=O)c1cc(Cl)ccc1Cl`, the displacement is 10%.
As for `O=C(O)C1C2CCC(C2)C1C(=O)Nc1nc(-c2ccc(Cl)cc2)cs1` (stereo unspecified), the displacement was found to be 7.1%.
Consider `CCOC(=O)C1=C(c2ccccc2)N=c2s/c(=C\c3ccc(O)c(OC)c3)c(=O)n2C1c1ccc(OC)cc1` (stereo unspecified), for which the displacement was 104%.
Then `CCOc1ccccc1N1CCN(C(=O)c2ccc([N+](=O)[O-])cc2Cl)CC1`, with 1.5%; and `O=C(Nc1ccc(NC(=O)c2ccc3ccccc3c2)cc1)c1ccccc1`, with 11.4%; and `O=C(CN(Cc1ccccc1)S(=O)(=O)c1ccccc1)NCc1ccc(Cl)cc1`, with 8.5%.
With `COc1ccc(OC)c(/C=C2N=C(/C=C/c3ccccc3)OC/2=O)c1`, the displacement turned out to be 9.6%.
Regarding `COc1ccc(C2Nc3ccccc3C(=O)N2Cc2ccco2)cc1COc1ccc(F)cc1` (stereo unspecified), the displacement came out at 10.3%.
Consider `C=CCNC(=O)C(=O)N/N=C/c1ccc2c(c1)OCCO2`, for which the displacement worked out at 7.1%.
For `CC(=O)C1=C(O)C(=O)N(CC2CCCO2)C1c1ccccc1` (stereo unspecified), the displacement is 10%.
On to `C#CCSc1nc2ccccc2n1C(=O)c1cccs1`, for which the displacement came to 22.7%.
With `CN(C)c1ccc(/C=C2/C(=O)ON=C2c2ccccc2)cc1Br`, the displacement was -46.9%.
As to `NC(=O)c1cc(NC(=O)c2ccc(Cl)c(Cl)c2)cc(C(N)=O)c1`, the displacement was -8.4%.
As for `O=C(NC(NC(=S)Nc1ccccc1Cl)C(Cl)(Cl)Cl)c1ccccc1F` (stereo unspecified), the displacement worked out at 10%.
`CC(C)Cc1nnc(NC(=O)Nc2ccc(Cl)c(Cl)c2)s1`: the displacement was found to be 3.9%.
With `CC(C)(C)Nc1ncnc(NC(C)(C)C)c1[N+](=O)[O-]`, the displacement is -1.3%.
On to `C=CCCCC(=O)Nc1ccccc1C`, for which the displacement is 14.5%.
As for `Cc1cccc(CN2CCN(C(=O)c3ccccc3F)CC2)c1`, the displacement is -9%.
In the case of `CC1=NN(C(=O)c2ccccc2Cl)C(O)(c2ccccc2)C1` (stereo unspecified), the displacement was determined as 1.1%.
Then `Cc1cccc(C(=O)Oc2ccc(/C=C3/SC(=S)NC3=O)cc2)c1`, with 6%.
As for `CCCC(=O)Nc1c(C)n(C)n(-c2ccccc2)c1=O`, the displacement was -5.9%.
`O=S(=O)(Nc1ccccn1)c1ccc(Br)cc1`: the displacement is -12.9%.
For `O=C1NC(=S)NC(=O)C1=Cc1ccc(OCc2ccccc2Cl)cc1` the value was 0%; for `Cc1nc2ccc(C(=O)O)cc2c2c1CC(C)O2` (stereo unspecified), -24.8%.
Turning to `COc1ccc(C(=O)CSc2ccccc2C(=O)O)cc1`, the displacement was -5.5%.
`COc1cc(C(=O)NC(NC(=S)Nc2ccccc2C)C(Cl)(Cl)Cl)cc(OC)c1OC` (stereo unspecified): the displacement amounted to 8.7%.
As to `CC(NC(=O)c1c(NC(=O)c2ccco2)sc2c1CCCCC2)c1ccccc1` (stereo unspecified), the displacement was -6.1%.
Regarding `CCc1ccc(S(=O)(=O)Nc2ccc(C)cn2)cc1`, the displacement came to 3.5%.
For the compound `CCOc1ccc(/C=C(\C#N)C(=O)NCc2ccco2)cc1OC`, the displacement was -11.5%.
With `CNC(=O)c1cc2cc(OC)ccc2n1CCN(C)C`, the displacement is -11.4%.
In the case of `C=CCN(CC=C)CCCCOc1cccc(C)c1`, the displacement is -11.7%.
Then `Cc1cccc(N2C(=O)C3CC=CCC3C2=O)n1` (stereo unspecified), with 12.8%; and `CCOc1ccc2oc(C)c(C(=O)OC)c2c1`, with 10.3%.
On to `Fc1cccc(Cl)c1CSc1nc2ccccc2[nH]1`, for which the displacement is 6.9%.
As for `O=C(CC(=S)c1cccs1)c1ccncc1`, the displacement is -35.3%.
`COc1cc(C(=O)N2CCN(C)CC2)c([N+](=O)[O-])cc1OC`: the displacement is -0.1%.
On to `CC1(c2ccc(Br)cc2)NN=C(c2ccccc2)S1` (stereo unspecified), for which the displacement was -5.6%.
For `Cc1ccc(N2CCN(/N=C\c3cccc(Br)c3)CC2)cc1`, the displacement is -3.9%.
Turning to `CCOC(=O)C1=C(O)/C(=C/c2ccc(C)o2)SC1=Nc1ccccc1`, the displacement was -4.6%.
Consider `COc1cccc(NC(=O)C(=O)N/N=C/c2ccc(OC)cc2OC)c1`, for which the displacement is -1.6%.
Then `O=C1NC(=S)N(c2cccc(Cl)c2)C(=O)/C1=C\C=C\c1ccccc1[N+](=O)[O-]`, with -1.8%; and `O=C(c1cc(N2CCCCC2)c(F)cc1[N+](=O)[O-])N1CCCCC1`, with 9.9%; and `Cc1ccc(C(=O)Nc2sc3c(c2C#N)CCCCCC3)o1`, with 4.7%.
On to `CCOc1ccccc1N1CCN(C(=O)c2cc(-c3cccc(C)c3)nc3ccccc23)CC1`, for which the displacement was -4.4%.
With `COC(=O)C1=C(C)NC(C)=C(C(=O)OC)C1c1ccc(-c2ccc(Cl)cc2Cl)o1`, the displacement stood at 3.8%.
In the case of `COC(=O)c1ccc(NC(=O)CC(=O)Nc2ccc(C(=O)OC)cc2)cc1`, the displacement was 2.1%.
Consider `CCCCOc1ccc(C=C2C(=O)N(C)C(=O)N(C)C2=O)cc1`, for which the displacement amounted to 8.8%.
`COc1ccc(C2c3c(nn(-c4ccccc4)c3C)CC(C)(O)C2C(C)=O)cc1OC` (stereo unspecified): the displacement was 1.1%.
Consider `CCN(CC)C(=O)c1sc(NC(=O)c2ccc(C(C)(C)C)cc2)c(C(=O)OC)c1C`, for which the displacement amounted to 4.7%.
For `Cc1cccc(NC(=O)c2ccncc2)c1` the value was 3.4%; for `CCN1C(=O)/C(=C\c2ccc(N(C)C)cc2)SC1=S`, -10.2%; for `COc1ccc(/C(C)=N/N2C(=O)c3ccccc3C2=O)cc1`, -7.6%.
Take `O=C(NC1CCCCC1Cc1ccco1)c1cccc2ccccc12` (stereo unspecified): the displacement was determined as 5.2%.

The values are drawn from PubChem BioAssay AID1240 (Sanford-Burnham Center for Chemical Genomics, 2008).
